# About 4,200 (1.3%) of roughly 330,000 compounds were called active. The inconclusive results got no clear call from the source; some entries with a clear call stand among them for comparison. The call rests on the fitted dose curve; in most records, active means well fitted activation curve with a large enough effect; inconclusive means small, poorly fitted or top-dose-only effect; inactive means no such curve, though single readings can be large or run the other way. Potencies beside an inconclusive call are fits to weak or partial responses and may not hold up.
# Test: qHTS screen for small molecules that induce genotoxicity in human embryonic kidney (HEK293T) cells expressing luciferase-tagged ELG1; further: nearly all actives have a fitted effect of over 60% in size; on activity change, positive = activation: % of control where 0% means no effect
# Conditions: HEK293T ELG1-luciferase reporter, luminescence, 16 h; series mostly up to 46 µM; activity change, positive = activation: at the top concentration
# Summary of the method: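 ELG1-luciferase HEK293T cells, 2,000/well; compound pinned in; 16 hr, 37 °C, 5% CO2; ONE-Glo, 30 min RT; luminescence on CCD imager.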
# Potency means the concentration at half of the fitted maximal effect; tags describe the fitted curve by direction and shape.
SMILES,Potency,"activity change, positive = activation"
CN(C)c1ccc(/C=N/n2ncc3ccccc32)cc1,"inconclusive: 3.66 µM [activator, full curve]",
CC(C)COC(=O)c1ccc(NC(=O)C2C3CCC(C3)C2C(=O)O)cc1 (stereo not drawn),"inconclusive: 16.4 µM [activator, partial curve, poor fit]",
CCc1cc(Cn2nc(-c3ccccc3)cc2C(=O)NCC2CC2)on1,,inactive: -2.7%
O=C(NCC1CCCO1)c1cc2ccccc2o1 (stereo not drawn),"inconclusive: 18.3 µM [activator, single point]",
Cc1ccc(-c2nc3ncccc3o2)cc1NC(=O)c1cc2ccccc2o1,,inactive: -0.199%
COC(=O)C1=C(C)Nc2ccc(C)cc2S1,"inconclusive: 25.9 µM [activator, partial curve, poor fit]",
CCn1nc([N+](=O)[O-])c2c(-c3nc4ccccc4o3)c(N)n(CCCOC)c2c1=O,"inconclusive: 32.6 µM [activator, single point]",
c1ccc2sc(N3CCCN(Cc4nc(-c5cnccn5)no4)CC3)nc2c1,,inactive: -9.11%
CCCCNC(=O)c1cc(-c2ccc(OC)cc2)on1,active: 8.2 µM,
CSCCC(NC(=O)c1ccco1)C(=O)NC1CCC(C)CC1 (stereo not drawn),"inconclusive: 23.1 µM [activator, partial curve, poor fit]",
O=[N+]([O-])c1ccc(C=Nc2ccc(Cl)cc2Cl)s1,"inconclusive: 20.6 µM [activator, single point]",
O=C(Cn1nc(-c2ccc3c(c2)OCCO3)ccc1=O)Nc1cccc(NC(=O)c2ccccn2)c1,"inconclusive: 25.9 µM [activator, partial curve, poor fit]",
O=C(Nc1ccccc1O)c1ccc(NC(=O)C2CC2)cc1,active: 20.6 µM,
O=C(NCCNC(=O)c1ccc(Br)o1)c1cccnc1,,inactive: 2.8%
O=C(O)c1ccc(COc2ccc(Cl)cc2)o1,"inconclusive: 20.6 µM [activator, single point]",
Cc1cc(C(=O)Cn2nnc3ccccc3c2=O)c(C)n1Cc1cccs1,active: 2.59 µM,
COc1ccc(C2=Nn3c(nnc3-c3ccc(OC)cc3)SC2)cc1,"inconclusive: 3.66 µM [activator, partial curve, poor fit]",
Cc1nn(C)cc1/C=C/C(=O)c1ccc(O)cc1,active: 20.6 µM,
O=C(Cc1ccc(Cl)cc1)NCCN1CCCC1,,inactive: 0.185%
O=c1c2cnn(-c3ccccc3)c2nc(-c2cccs2)n1-c1cccc(Cl)c1,,inactive: -2.66%
CCOC(=O)CNC(=O)c1ccc(SCC)cc1,"inconclusive: 18.3 µM [activator, partial curve]",
Cc1nc2c3c(sc2c(=O)[nH]1)NC(=O)CC3c1ccccc1Cl (stereo not drawn),"inconclusive: 14.6 µM [activator, partial curve]",
Cc1cc(=O)oc2cc(NC(=S)NNC(=O)c3c(Cl)cnn3C)ccc12,"inconclusive: 3.26 µM [activator, partial curve, poor fit]",
O=C(N/N=C/c1ccc2c(c1)OCO2)C(=O)Nc1ccccc1Cl,"inconclusive: 23.1 µM [activator, partial curve, poor fit]",
COc1cccc(C(=O)N(Cc2nc(-c3ccc(C)cc3)no2)C(C)C)c1,"inconclusive: 20.6 µM [activator, single point]",

SMILES,Potency,"activity change, positive = activation"
CC1CC(=O)N(C)c2cc([N+](=O)[O-])ccc2N1 (stereo not drawn),"inconclusive: 1.46 µM [activator, full curve]",
COC(c1ccccc1)c1nnc(CCC(=O)N(C)Cc2cccc(-n3cccn3)c2)o1 (stereo not drawn),"inconclusive: 16.4 µM [activator, partial curve, poor fit]",
CCN(CC(=O)Nc1cc(Cl)ccc1C)C(=O)CCS(=O)(=O)c1ccc(C)cc1,,inactive: -3.74%
COc1ccc(CCc2nc(-c3cccs3)no2)cc1,"inconclusive: 20.6 µM [activator, single point]",
O=C(CSc1nc2ccccc2o1)Nc1nc2ccccc2s1,,inactive: 17.7%
CCCCn1c(N)c(N(CC(C)C)C(=O)C2CCN(S(=O)(=O)c3ccc(C)cc3)CC2)c(=O)[nH]c1=O,,inactive: -3.73%
Cc1cc(O)c(C(=O)Nc2cccc(Cl)c2)c(=O)n1C,active: 10.3 µM,
Nc1cccc(-c2nc3ccc(N)cc3s2)c1,"inconclusive: 2.31 µM [activator, partial curve]",
O=C(CSc1ccc(F)cc1)NC1CCCCC1,"inconclusive: 20.6 µM [activator, partial curve, poor fit]",
CCCc1nn2c(=O)cc(CSCC(=O)Nc3ccc(C)cc3)nc2s1,,inactive: 1.85%
Cn1ccc(C(=O)Nc2ccc3c(c2)OCCO3)n1,active: 5.8 µM,
COc1ccc2[nH]c(C(=O)N3CCNCC3)cc2c1OC,"inconclusive: 20.6 µM [activator, single point]",
CCN(CC)c1ccc2c(c1)C(=O)N(C)C2=O,"inconclusive: 12.6 µM [activator, partial curve, poor fit]",
Cc1cccc(/C(N)=N/OC(=O)c2ccc(Br)o2)c1,"inconclusive: 23.1 µM [activator, partial curve, poor fit]",
CSc1nc2c(cnn2-c2ccccc2)c(=O)n1N,,inactive: 17.6%
CSc1nc2ccc(NC(=O)c3c(F)cccc3F)cc2s1,"inconclusive: 8.2 µM [activator, partial curve]",
CSC1=NC2(CCCCC2)CC12C=CC(=O)C=C2,,inactive: 5.11%
O=C(NC12CC3CC(CC(C3)C1)C2)c1ccc(-c2ccc(Cl)cc2)o1,"inconclusive: 9.2 µM [activator, partial curve]",
Clc1ccccc1OCc1nnc(-c2ccccc2)o1,"inconclusive: 8.2 µM [activator, partial curve]",
Cc1nc2ccccn2c1C(=O)Nc1ccc(Cl)cc1,"inconclusive: 14.6 µM [activator, partial curve, poor fit]",
CC(=O)c1sc(NC(=O)COc2ccc(Cl)cc2Cl)nc1C,"inconclusive: 3.66 µM [activator, full curve, poor fit]",
CN(C)/C=N/c1nc(-c2ccc3ccccc3c2)cs1,"inconclusive: 2.59 µM [activator, full curve]",
CCOc1ccc2oc(C(=O)Nc3nccs3)c(C)c2c1,active: 2.59 µM,
O=C(NCCc1cccs1)C1CC(c2ccc([N+](=O)[O-])cc2)=NO1 (stereo not drawn),"inconclusive: 16.4 µM [activator, partial curve, poor fit]",
COc1ccc(C2=Nn3c(nnc3-c3ccccc3Cl)SC2)cc1OC1CCOC1 (stereo not drawn),"inconclusive: 20.6 µM [activator, single point]",

SMILES,Potency,"activity change, positive = activation"
C=CCC[C@H](Cc1ccc(F)cc1)C(=O)OC[C@@H](Cc1c[nH]c2ccccc12)NC(=O)[C@H](CC=C)CC(=O)N[C@H](CO)Cc1ccccc1,,inactive: -3.43%
COC(=O)C1=C(C)Nc2[nH]c(=S)[nH]c(=O)c2C1c1ccc(OC)cc1 (stereo not drawn),,inactive: -0.441%
CCS(=O)(=O)c1ccc2oc(SCC(=O)NCCc3ccc(F)cc3)nc2c1,,inactive: -7.91%
Cc1cc(N)n2nc(-c3ccc(C(C)(C)C)cc3)cc2n1,active: 0.411 µM,
Cn1cc(/C=C2\SC(=O)N(c3ccccc3)C2=O)c2ccccc21,"inconclusive: 11.6 µM [activator, partial curve, poor fit]",
CC(C)CCNC(=O)C(=O)NC1CCCC1,"inconclusive: 20.6 µM [activator, partial curve, poor fit]",
c1ccc(-c2ccc(-c3nccc4ccccc34)[nH]2)cc1,"inconclusive: 0.259 µM [activator, full curve, poor fit]",
COc1ccc(CC(=O)Nc2ccccc2C(C)=O)cc1S(=O)(=O)N1CCOCC1,,inactive: -9.55%
O=C(Nc1ccc(N2CCOCC2)c(Cl)c1)c1ccccc1Cl,"inconclusive: 23.1 µM [activator, partial curve, poor fit]",
O=C(Nc1ccc(F)cc1F)c1cc(-c2ccco2)on1,"inconclusive: 29.1 µM [activator, partial curve, poor fit]",
O=C(c1cccnc1)N1CCN(Cc2ccc3c(c2)OCO3)CC1,,inactive: -6.95%
COc1ccccc1NC(=O)C1=C(C)NC(=O)NC1c1ccccc1[N+](=O)[O-] (stereo not drawn),"inconclusive: 18.3 µM [activator, single point]",
CC(=O)Nc1ccc(OC(=O)c2cc3ccccc3oc2=O)cc1,"inconclusive: 20.6 µM [activator, single point]",
O=C(Nc1ccc2nc(-c3cccnc3)[nH]c2c1)c1ccccc1F,,inactive: 8.16%
Cc1ccc(NC(=O)COC(=O)CNC(=O)c2ccco2)cc1,,inactive: 0.352%
OCCC1CN(Cc2cccn2-c2ccccn2)CCN1C1CCCC1 (stereo not drawn),,inactive: -0.478%
CSCCC(=O)N(C)CC1CCN(CCc2cccc(C(F)(F)F)c2)CC1,,inactive: -0.142%
CCOC(=O)C1CCCN(C(=O)CCCOc2cc(=O)n(C)c3ccccc23)C1 (stereo not drawn),"inconclusive: 23.1 µM [activator, partial curve, poor fit]",
Cc1ccc(-c2c(C#N)c(N)nc3c2CCCCC3)o1,,inactive: -3.21%
CC(C)Cc1cc(C(=O)N2CCN(c3ccc(F)cc3)CC2)no1,"inconclusive: 29.1 µM [activator, single point]",
O=C(N/N=C/c1c(O)ccc2ccccc12)c1ccc(Br)o1,"inconclusive: 7.3 µM [activator, partial curve, poor fit]",
O=C(Nc1ccc(F)cc1)Nc1ccc(Cl)cn1,"inconclusive: 18.4 µM [activator, partial curve, poor fit]",
CCC(C)(C)C1CCc2[nH]nc(C(=O)N/N=C(\C)c3ccco3)c2C1 (stereo not drawn),"inconclusive: 2.91 µM [activator, partial curve]",
